Reference: patent publication US6448281B1 (Boehringer Ingelheim (Canada) Ltd., priority 2000, dated 2002)

Biological target: hepatitis C virus RNA dependent polymerase (NS5B) (Hepacivirus hominis (Hepatitis C virus), UniProt P26663)
Assay: Inhibition of NS5B RNA dependent RNA polymerase activity (SPA, UMP-[5,6 3H] incorporation)
Details: not given

Structure (SMILES) | IC50
COc1ccc(CCNC(=O)c2ccc3c(c2)nc(-c2ccccn2)n3C2CCCCC2)cc1OC [Entry 2108, 1-Cyclohexyl-2-pyridin-2-yl-1H-benzoimidazole-5-carboxylic Acid [2-(3,4-Dimethoxyphenyl)ethyl]amide] | 10 to 25 µM

Same assay, conditions: IC50 μM, Table 2

Structure (SMILES) | IC50
O=C(N[C@@H](Cc1c[nH]c2ccc(O)cc12)C(=O)O)c1ccc2c(c1)nc(-c1ccc(O)cc1O)n2C1CCCCC1 [Entry 2089] | 1 to 5 µM
COc1ccc(C(NC(=O)c2ccc3c(c2)nc(-c2ccco2)n3C2CCCCC2)C(=O)O)cc1OC (stereo not drawn) [Entry 2048] | 1 to 5 µM
O=C(N[C@@H](Cc1c[nH]c2ccc(O)cc12)C(=O)O)c1ccc2c(c1)nc(-c1cc3ccccc3[nH]1)n2C1CCCCC1 [Entry 2110] | 1 to 5 µM
COc1ccc(CNC(=O)c2ccc3c(c2)nc(-c2cccc(C)n2)n3C2CCCCC2)cc1OC [Entry 2015] | 10 to 25 µM
C=CCC(C)(C)c1nc2cc(C(=O)N[C@@H](Cc3c[nH]c4ccc(O)cc34)C(=O)O)ccc2n1C1CCCCC1 [Entry 2088] | 10 to 25 µM
Cc1cc(-c2nc3cc(C(=O)N[C@@H](Cc4c[nH]c5ccc(O)cc45)C(=O)O)ccc3n2C2CCCCC2)n[nH]1 [Entry 2126] | 1 to 5 µM
C[C@H](NC(=O)c1ccc2c(c1)nc(-c1ccccn1)n2C1CCCCC1)C(=O)O [Entry 2024] | 10 to 25 µM
CCC(C)c1nc2cc(C(=O)NC(C(=O)O)c3ccc(OC)c(OC)c3)ccc2n1C1CCCCC1 (stereo not drawn) [Entry 2032] | 10 to 25 µM
O=C(N[C@@H](CO)C(=O)O)c1ccc2c(c1)nc(-c1ccccn1)n2C1CCCCC1 [Entry 2021] | 10 to 25 µM
COc1ccc(CCNC(=O)c2ccc3c(c2)nc(-c2ccccc2F)n3C2CCCCC2)cc1OC [Entry 2005] | 10 to 25 µM
O=C(N[C@@H](Cc1c[nH]c2ccc(O)cc12)C(=O)O)c1ccc2c(c1)nc(-c1ccno1)n2C1CCCCC1 [Entry 2128] | 1 to 5 µM

Same assay, conditions: IC50 μM, Table 3

Structure (SMILES) | IC50
O=C(NC(Cc1c[nH]c2ccc(O)cc12)C(=O)O)c1ccc2c(c1)nc(-c1ccoc1)n2C1C2CCC(C2)C1CO (stereo not drawn) [Entry 3035] | 1 to 5 µM
CC[C@H](C)[C@@H](CO)n1c(-c2ccoc2)nc2cc(C(=O)N[C@@H](Cc3c[nH]c4ccc(O)cc34)C(=O)O)ccc21 [Entry 3029] | 1 to 5 µM

Same assay, conditions: IC50 μM, Table 6

Structure (SMILES) | IC50
O=C(O)[C@@H]1C[C@@H](O)CN1C(=O)c1ccc2c(c1)nc(-c1ccoc1)n2C1CCCCC1 [Entry 6001] | 10 to 25 µM

Same assay, conditions: IC50 μM, Table 7

Structure (SMILES) | IC50
O=C(O)c1ccc2c(c1)nc(-c1ccoc1)n2C1CCCCC1 [Entry 7018, 1-Cyclohexyl-2-furan-3-yl-1H-benzoimidazole-5-carboxylic Acid] | 1 to 5 µM
O=C(O)c1cccc(-c2nc3cc(C(=O)O)ccc3n2C2CCCCC2)c1 [Entry 7007] | 10 to 25 µM
O=C(O)c1ccc2c(c1)nc(-c1ccc3c(c1)OCCO3)n2C1CCCCC1 [Entry 7014] | 1 to 5 µM
Cc1cscc1-c1nc2cc(C(=O)O)ccc2n1C1CCCCC1 [Entry 7022] | 5 to 10 µM

Same assay, conditions: IC50 μM, Table 22

Structure (SMILES) | IC50
O=C(N[C@@H](Cc1c[nH]c2ccc(O)cc12)C(=O)O)c1ccc2c(c1)nc(-c1ccoc1)n2[C@@H]1CCCC[C@H]1CO [Entry 22019] | < 1 µM

Same assay, conditions: IC50 μM, first compound table (printed title TABLE 10; Table 1)

Structure (SMILES) | IC50
O=C(NC(Cc1ccc(C(=O)O)c(F)c1)C(=O)O)c1ccc2c(c1)nc(-c1ccoc1)n2C1CCCCC1 (racemic) [Entry 1142, 4-(2-Carboxy-2-{[1-(1-cyclohexyl-2-furan-3-yl-1H-benzimidazol-5-yl)-methanoyl]-amino}-ethyl)-2-fluoro-benzoic Acid] | 1 to 5 µM
O=C(N[C@H]1CC[C@H](N2C(=O)CNC2=O)CC1)c1ccc2c(c1)nc(-c1ccoc1)n2C1CCCCC1 [Entry 1193] | 10 to 25 µM
O=C(O)/C=C/c1ccc(CN2CCC(CNC(=O)c3ccc4c(c3)nc(-c3ccoc3)n4C3CCCCC3)CC2)cc1 [Entry 1278] | 1 to 5 µM
O=C(Nc1cccc(C(=O)O)c1)N[C@H]1CC[C@H](NC(=O)c2ccc3c(c2)nc(-c2ccoc2)n3C2CCCCC2)CC1 [Entry 1207] | 5 to 10 µM
O=C(NC(Cc1ccc(O)cc1)c1ccccn1)c1ccc2c(c1)nc(-c1ccoc1)n2C1CCCCC1 (racemic) [Entry 1231, 1-Cyclohexyl-2-furan-3-yl-1H-benzimidazole-5-carboxylic Acid [2-(4-hydroxy-phenyl)-1-pyridin-2-yl-ethyl]-amide] | 1 to 5 µM
O=C(O)C=Cc1ccc(CN2CCCC(NC(=O)c3ccc4c(c3)nc(-c3ccoc3)n4C3CCCCC3)C2)cc1 (stereo not drawn) [Entry 1280] | 1 to 5 µM
O=C(NC1CCCN(Cc2ccccc2C(=O)O)C1)c1ccc2c(c1)nc(-c1ccoc1)n2C1CCCCC1 (stereo not drawn) [Entry 1270] | 10 to 25 µM
O=C(NC1CCCN(C(=O)Nc2ccccc2C(=O)O)C1)c1ccc2c(c1)nc(-c1ccoc1)n2C1CCCCC1 (stereo not drawn) [Entry 1200] | 10 to 25 µM
O=C(O)c1cccc(CNC2CCCC(NC(=O)c3ccc4c(c3)nc(-c3ccoc3)n4C3CCCCC3)C2)c1 (stereo not drawn) [Entry 1289] | 1 to 5 µM
CC(NC(=O)C(Cc1ccc(O)cc1)NC(=O)c1ccc2c(c1)nc(-c1ccoc1)n2C1CCCCC1)C(=O)O (stereo not drawn) [Entry 1016] | 1 to 5 µM
O=C(N[C@@H](Cc1ccccc1)C(=O)O)c1ccc2c(c1)nc(-c1ccoc1)n2C1CCCCC1 [Entry 1015] | 5 to 10 µM
O=C(NC1CCN(C(=O)Nc2ccccc2C(=O)O)C1)c1ccc2c(c1)nc(-c1ccoc1)n2C1CCCCC1 (stereo not drawn) [Entry 1196] | 1 to 5 µM
NC(=O)[C@@H](Cc1ccc(O)cc1)NC(=O)c1ccc2c(c1)nc(-c1ccoc1)n2C1CCCCC1 [Entry 1156] | 5 to 10 µM
O=C(NC1CCNC1)c1ccc2c(c1)nc(-c1ccoc1)n2C1CCCCC1 (stereo not drawn) [Entry 1180] | 5 to 10 µM
O=C(NC1CCCC(NCc2ccccc2C(=O)O)C1)c1ccc2c(c1)nc(-c1ccoc1)n2C1CCCCC1 (stereo not drawn) [Entry 1268] | 10 to 25 µM
O=C(Nc1ccc(-c2ccc(C(=O)O)o2)cc1)c1ccc2c(c1)nc(-c1ccoc1)n2C1CCCCC1 [Entry 1239] | 1 to 5 µM
O=C(Nc1cccc(C(=O)O)c1)NC1CCCC(NC(=O)c2ccc3c(c2)nc(-c2ccoc2)n3C2CCCCC2)C1 (stereo not drawn) [Entry 1205] | 1 to 5 µM
O=C(NC(Cc1ccc(O)cc1)c1cccnc1)c1ccc2c(c1)nc(-c1ccoc1)n2C1CCCCC1 (racemic) [Entry 1260, 1-Cyclohexyl-2-furan-3-yl-1H-benzimidazole-5-carboxylic Acid [2-(4-hydroxy-phenyl)-1-pyridin-3-yl-ethyl]-amide] | 1 to 5 µM

Same assay, conditions: IC50, Table 11

Structure (SMILES) | IC50
O=C(O)C(=O)Nc1ccc2[nH]cc(C[C@H](NC(=O)c3ccc4c(c3)nc(-c3ccoc3)n4C3CCCCC3)C(=O)O)c2c1 [Entry 11024, (S)-3-{5-[(1-Carboxy-methanoyl)-amino]-1H-indol-3-yl}-2-{[1-(1-cyclohexyl-2-furan-3-yl-1H-benzimidazol-5-yl)-methanoyl]-amino}-propionic Acid] | < 1 µM
O=C(O)COc1ccc2c(c1)c(C[C@H](NC(=O)c1ccc3c(c1)nc(-c1ccoc1)n3C1CCCCC1)C(=O)O)cn2CC(=O)O | < 1 µM

Same assay, conditions: IC50, Table 12

Structure (SMILES) | IC50
[N-]=[N+]=Nc1ccc(C(=O)NCCNC(=O)COc2ccc(-c3nc4cc(C(=O)N[C@@H](Cc5c[nH]c6ccc(OCC(=O)O)cc56)C(=O)O)ccc4n3C3CCCCC3)cc2)cc1 [Entry 12025, (S)-2-{[1-(2-{4-[(2-{[1-(4-Azido-phenyl)-methanoyl]-amino}-ethylcarbamoyl)-methoxy]-phenyl}-1-cyclohexyl-1H-benzimidazol-5-yl)-methanoyl]-amino}-3-(5-carboxymethoxy-1H-indol-3-yl)-propionic Acid] | < 1 µM
O=C(N[C@@H](Cc1c[nH]c2ccc(O)cc12)C(=O)O)c1ccc2c(c1)nc(-c1ccsc1)n2C1CCCCC1 [Entry 12008] | < 1 µM
O=C(N[C@@H](Cc1c[nH]c2ccc(O)cc12)C(=O)O)c1ccc2c(c1)nc(-c1cccc3c1OCO3)n2C1CCCCC1 [Entry 12005] | < 1 µM

Same assay, conditions: IC50, Table 13

Structure (SMILES) | IC50
NC(=O)[C@H](Cc1c[nH]c2ccc(NS(=O)(=O)C(F)(F)F)cc12)NC(=O)c1ccc2c(c1)nc(-c1ccoc1)n2C1CCCCC1 [Entry 13007] | < 1 µM
NC(=O)[C@H](Cc1c[nH]c2ccc(NC(=O)C(=O)NO)cc12)NC(=O)c1ccc2c(c1)nc(-c1ccoc1)n2C1CCCCC1 [Entry 13011, N^1-[3-((S)-2-Carbamoyl-2-{[1-(1-cyclohexyl-2-furan-3-yl-1H-benzimidazol-5-yl)-methanoyl]-amino}-ethyl)-1H-indol-5-yl]-N^2-hydroxy-oxalamide] | < 1 µM
O=C(N[C@@H](Cc1c[nH]c2ccc(O)cc12)C(=O)NCCO)c1ccc2c(c1)nc(-c1ccoc1)n2C1CCCCC1 [Entry 13016, 1-Cyclohexyl-2-furan-3-yl-1H-benzimidazole-5-carboxylic Acid [(S)-1-(2-Hydroxy-ethylcarbamoyl)-2-(5-hydroxy-1H-indol-3-yl)-ethyl]-amide] | < 1 µM

Same assay, conditions: IC50, Table 16

Structure (SMILES) | IC50
O=C(N[C@@H](Cc1ccc(Nc2c(O)c(=O)c2=O)cc1)C(=O)O)c1ccc2c(c1)nc(-c1ccoc1)n2C1CCCCC1 [Entry 16025] | < 1 µM
Cc1cc(CC(NC(=O)c2ccc3c(c2)nc(-c2ccoc2)n3C2CCCCC2)C(=O)O)cc(Cl)c1OCC(=O)O (racemic) [Entry 16055, 3-(4-Carboxymethoxy-3-chloro-5-methyl-phenyl)-2-{[1-(1-cyclohexyl-2-furan-3-yl-1H-benzimidazol-5-yl)-methanoyl]-amino}-propionic Acid] | < 1 µM
O=C(N[C@@H](Cc1ccc(O)c(-c2nn[nH]n2)c1)C(=O)O)c1ccc2c(c1)nc(-c1ccoc1)n2C1CCCCC1 [Entry 16056, (S)-2-{[1-(1-Cyclohexyl-2-furan-3-yl-1H-benzimidazol-5-yl)-methanoyl]-amino}-3-[4-hydroxy-3-(2H-tetrazol-5-yl)-phenyl]-propionic Acid] | < 1 µM
Cc1cc(CC(NC(=O)c2ccc3c(c2)nc(-c2ccoc2)n3C2CCCCC2)C(=O)O)cc(C)c1O (stereo not drawn) [Entry 16034] | < 1 µM

Same assay, conditions: IC50, Table 21

Structure (SMILES) | IC50
O=C(O)COc1ccc2cc(CC(NC(=O)c3ccc4c(c3)nc(-c3ccoc3)n4C3CCCCC3)C(=O)O)ccc2c1 (racemic) [Entry 21002, 3-(6-Carboxymethoxy-naphthalen-2-yl)-2-{[1-(1-cyclohexyl-2-furan-3-yl-1H-benzimidazol-5-yl)-methanoyl]-amino}-propionic Acid] | < 1 µM
